The supplement of paper PMC8728848
The list shows a part of the results.

Legend:
Assay in all cases: glycan array binding signal (z-score within array); higher = stronger binding
Conditions in all cases: glycan notation: IUPAC condensed, linker removed
[1] = molecular target: Gal(b1-4)GlcNAc(b1-3)Gal(b1-4)GlcNAc(b1-3)Gal(b1-4)GlcNAc(b1-2)Man(a1-3)[Gal(b1-4)GlcNAc(b1-3)Gal(b1-4)GlcNAc(b1-3)Gal(b1-4)GlcNAc(b1-2)Man(a1-6)]Man(b1-4)GlcNAc(b1-4)GlcNAc
Method in brief: (§1)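 The binding signal is a Z-score computed within each array. Data were drawn from 3228 arrays in the Consortium for Functional Glycomics database, restricted to those with a known protein sequence. Scores were averaged over arrays of the same protein sequence at different concentrations or buffers, and over linkers, and negative values can be taken as non-binding.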

[2] = molecular target: Gal(b1-4)GlcNAc(b1-3)Gal(b1-4)GlcNAc(b1-3)Gal(b1-4)GlcNAc(b1-2)Man(a1-3)[Gal(b1-4)GlcNAc(b1-3)Gal(b1-4)GlcNAc(b1-3)Gal(b1-4)GlcNAc(b1-2)Man(a1-6)]Man(b1-4)GlcNAc(b1-4)[Fuc(a1-6)]GlcNAc
Method in brief: as §1

[3] = molecular target: Gal(b1-4)GlcNAc(b1-3)Gal(b1-4)GlcNAc(b1-3)Gal(b1-4)GlcNAc(b1-2)[Gal(b1-4)GlcNAc(b1-3)Gal(b1-4)GlcNAc(b1-3)Gal(b1-4)GlcNAc(b1-6)]Man(a1-6)[Gal(b1-4)GlcNAc(b1-3)Gal(b1-4)GlcNAc(b1-3)Gal(b1-4)GlcNAc(b1-2)Man(a1-3)]Man(b1-4)GlcNAc(b1-4)[Fuc(a1-6)]GlcNAc
Method in brief: as §1

[4] = molecular target: Gal(b1-4)GlcNAc(b1-3)Gal(b1-4)GlcNAc(b1-3)Gal(b1-4)GlcNAc(b1-3)Gal(b1-4)GlcNAc(b1-2)Man(a1-3)[Gal(b1-4)GlcNAc(b1-3)Gal(b1-4)GlcNAc(b1-3)Gal(b1-4)GlcNAc(b1-3)Gal(b1-4)GlcNAc(b1-2)Man(a1-6)]Man(b1-4)GlcNAc(b1-4)GlcNAc
Method in brief: as §1

[5] = molecular target: Gal(b1-4)GlcNAc(b1-3)Gal(b1-4)GlcNAc(b1-3)Gal(b1-4)GlcNAc(b1-3)Gal(b1-4)GlcNAc(b1-2)Man(a1-3)[Gal(b1-4)GlcNAc(b1-3)Gal(b1-4)GlcNAc(b1-3)Gal(b1-4)GlcNAc(b1-3)Gal(b1-4)GlcNAc(b1-2)Man(a1-6)]Man(b1-4)GlcNAc(b1-4)[Fuc(a1-6)]GlcNAc
Method in brief: as §1

[6] = molecular target: Gal(b1-4)GlcNAc(b1-3)Gal(b1-4)GlcNAc(b1-3)Gal(b1-4)GlcNAc(b1-3)Gal(b1-4)GlcNAc(b1-2)[Gal(b1-4)GlcNAc(b1-3)Gal(b1-4)GlcNAc(b1-3)Gal(b1-4)GlcNAc(b1-3)Gal(b1-4)GlcNAc(b1-6)]Man(a1-6)[Gal(b1-4)GlcNAc(b1-3)Gal(b1-4)GlcNAc(b1-3)Gal(b1-4)GlcNAc(b1-3)Gal(b1-4)GlcNAc(b1-2)Man(a1-3)]Man(b1-4)GlcNAc(b1-4)[Fuc(a1-6)]GlcNAc
Method in brief: as §1

[7] = molecular target: Gal(b1-4)GlcNAc(b1-3)Gal(b1-4)GlcNAc(b1-3)Gal(b1-4)GlcNAc(b1-3)Gal(b1-4)GlcNAc(b1-3)Gal(b1-4)GlcNAc(b1-2)Man(a1-3)[Gal(b1-4)GlcNAc(b1-3)Gal(b1-4)GlcNAc(b1-3)Gal(b1-4)GlcNAc(b1-3)Gal(b1-4)GlcNAc(b1-3)Gal(b1-4)GlcNAc(b1-2)Man(a1-6)]Man(b1-4)GlcNAc(b1-4)GlcNAc
Method in brief: as §1

[8] = molecular target: Gal(b1-4)GlcNAc(b1-3)Gal(b1-4)GlcNAc(b1-3)Gal(b1-4)GlcNAc(b1-3)Gal(b1-4)GlcNAc(b1-3)Gal(b1-4)GlcNAc(b1-2)Man(a1-3)[Gal(b1-4)GlcNAc(b1-3)Gal(b1-4)GlcNAc(b1-3)Gal(b1-4)GlcNAc(b1-3)Gal(b1-4)GlcNAc(b1-3)Gal(b1-4)GlcNAc(b1-2)Man(a1-6)]Man(b1-4)GlcNAc(b1-4)[Fuc(a1-6)]GlcNAc
Method in brief: as §1

[9] = molecular target: Gal(b1-4)GlcNAc(b1-3)Gal(b1-4)GlcNAc(b1-3)Gal(b1-4)GlcNAc(b1-3)Gal(b1-4)GlcNAc(b1-3)Gal(b1-4)GlcNAc(b1-2)[Gal(b1-4)GlcNAc(b1-3)Gal(b1-4)GlcNAc(b1-3)Gal(b1-4)GlcNAc(b1-3)Gal(b1-4)GlcNAc(b1-3)Gal(b1-4)GlcNAc(b1-6)]Man(a1-6)[Gal(b1-4)GlcNAc(b1-3)Gal(b1-4)GlcNAc(b1-3)Gal(b1-4)GlcNAc(b1-3)Gal(b1-4)GlcNAc(b1-3)Gal(b1-4)GlcNAc(b1-2)Man(a1-3)]Man(b1-4)GlcNAc(b1-4)[Fuc(a1-6)]GlcNAc
Method in brief: as §1

[10] = molecular target: Gal(b1-4)GlcNAc(b1-3)Gal(b1-4)GlcNAc(b1-3)Gal(b1-4)GlcNAc(b1-3)Gal(b1-4)GlcNAc(b1-3)Gal(b1-4)GlcNAc(b1-3)Gal(b1-4)GlcNAc(b1-2)Man(a1-3)[Gal(b1-4)GlcNAc(b1-3)Gal(b1-4)GlcNAc(b1-3)Gal(b1-4)GlcNAc(b1-3)Gal(b1-4)GlcNAc(b1-3)Gal(b1-4)GlcNAc(b1-3)Gal(b1-4)GlcNAc(b1-2)Man(a1-6)]Man(b1-4)GlcNAc(b1-4)GlcNAc
Method in brief: as §1

[11] = molecular target: Gal(b1-4)GlcNAc(b1-3)Gal(b1-4)GlcNAc(b1-3)GalNAc
Method in brief: as §1

[12] = molecular target: Gal(b1-4)GlcNAc(b1-3)Gal(b1-4)GlcNAc(b1-3)[Gal(b1-4)GlcNAc(b1-3)Gal(b1-4)GlcNAc(b1-6)]GalNAc
Method in brief: as §1

[13] = molecular target: Gal(b1-4)GlcNAc(b1-3)Gal(b1-4)GlcNAc(b1-6)[Gal(b1-3)]GalNAc
Method in brief: as §1

[14] = molecular target: Gal(b1-4)GlcNAc(b1-3)Gal(b1-4)[Fuc(a1-3)]GlcNAc(b1-3)Gal(b1-4)[Fuc(a1-3)]GlcNAc
Method in brief: as §1

[15] = molecular target: Gal(b1-4)GlcNAc(b1-3)GalNAc
Method in brief: as §1

[16] = molecular target: Gal(b1-4)GlcNAc(b1-3)[Fuc(a1-3)GlcNAc(b1-6)]Gal(b1-4)Glc
Method in brief: as §1

[17] = molecular target: Gal(b1-4)GlcNAc(b1-3)[Gal(b1-4)GlcNAc(b1-6)]Gal(b1-4)GlcNAc
Method in brief: as §1

[18] = molecular target: Gal(b1-4)GlcNAc(b1-3)[GlcNAc(b1-6)]Gal(b1-4)GlcNAc
Method in brief: as §1

[19] = molecular target: Gal(b1-4)GlcNAc(b1-6)Gal(b1-4)GlcNAc
Method in brief: as §1

B1: PX9937D-bvu-500-26-500 (Bacteroides vulgatus) (protein)
chain: DPVSDITDLNYWKTPEQFDSFVFGLHSRFRSHSWNMFLLGEARSDVFGGIPFGGEATQGMERFPYNTLNAENPGISGFGDLYQNINQMNLFISRTLHTDVLTESARNYYLGQVYGLRAYYMYQLYRSWGDVVFTEEPSLGFEVGKLAKAATPAAEIFEQVKKDIESSLSYFGSDYTIKEKKSLWSKAATLMLKADVYLWSAHRDGGEGDARTAKNALVDIQNNISRSNLDLMDTYQGVFAYDNKGNKEIIFTIHNELFEYNLWNGNNDLFPQADYLGKFYNADGTLINTSVENNFGIMRLMVKLENFKKFLPGDTRRDVTLKDVYNKVENGKLELVGVYPHKYWGVMNGSTRVRCDDYPIYRYSDLLLMLAEAKVLLGEDPATEINRVRRRAFGDAYDASTVGFPNQEVDKRPADAVLQERLFEFMLEGKRWYDLRRFGDSYVLDYTPAEPARLLWPINQGALTNNPLLKQTVGY
glycan array binding signal (z-score) [1]: 0.184
glycan array binding signal (z-score) [2]: 0.333
glycan array binding signal (z-score) [3]: 1.63
glycan array binding signal (z-score) [4]: 0.731
glycan array binding signal (z-score) [5]: 0.083
glycan array binding signal (z-score) [6]: 1.17
glycan array binding signal (z-score) [7]: -0.026
glycan array binding signal (z-score) [8]: 0.497
glycan array binding signal (z-score) [9]: 1.93
glycan array binding signal (z-score) [10]: 2.58
glycan array binding signal (z-score) [11]: -0.444
glycan array binding signal (z-score) [12]: 0.311
glycan array binding signal (z-score) [13]: -0.492
glycan array binding signal (z-score) [14]: -0.506
glycan array binding signal (z-score) [15]: -0.157
glycan array binding signal (z-score) [16]: 0.466
glycan array binding signal (z-score) [17]: -0.448
glycan array binding signal (z-score) [18]: -0.268
glycan array binding signal (z-score) [19]: -0.271
